According to PMC7819943, “Rice protein-binding microarrays: a tool to detect cis-acting elements near promoter regions in rice”:
Some of the results follow.

These sequences were tested against T1, OsWOX13 (Oryza sativa, UniProt Q5QMM3 1-267) (assay: protein-binding microarray (RPBM); PBS, 2% BSA, 51.3 ng/ul salmon testes DNA, 50 uM zinc acetate, 200 nM TF, 25 C, 1 h; high values mean tight binding). Conditions: protein: recombinant; tags: N-terminal polyhistidine and DsRed monomer fusion (pET32a); label: CyDye5-dUTP incorporated in the synthesized complementary strand; 3' TTTTT single-stranded linker to array surface; dsDNA, one strand shown.
T1 sequence: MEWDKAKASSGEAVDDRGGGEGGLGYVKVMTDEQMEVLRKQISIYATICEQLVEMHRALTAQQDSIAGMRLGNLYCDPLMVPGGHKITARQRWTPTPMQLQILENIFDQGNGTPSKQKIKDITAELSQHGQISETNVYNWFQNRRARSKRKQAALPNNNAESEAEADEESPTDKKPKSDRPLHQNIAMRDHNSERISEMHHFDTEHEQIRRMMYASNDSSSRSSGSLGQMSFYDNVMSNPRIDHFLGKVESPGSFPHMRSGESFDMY
Method in brief: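 The binding signal is fluorescence intensity per feature, in arbitrary units, read on an Axon 4000B scanner. Polyhistidine- and DsRed-tagged transcription factors (N-terminal fusions) from E. coli BL21-CodonPlus were purified on Ni–NTA and applied at 200 nM for 1 h at 25 °C to a double-stranded, BSA-blocked custom Agilent array in buffer with 50 µM zinc acetate.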

With “GCTGATGGACTGCCGCTACCCTCTCTTTAGTCCCGGATTGCGGAGTCACCTAGTGCAG” as the sequence, how does the binding signal read?
Its binding signal is 33300 fluorescence intensity (a.u.).

For “AGTAATTGGAGAGCTCCTCTTACTGTTTCCTACAGTGCGTCGGAGTCACCTAGTGCAG”, which binding signal is on record?
The binding signal was 34700 fluorescence intensity (a.u.).

For “TCGTTCTAATTTAACCAAACTTTTAATTTTGGTGTGAACCCGGAGTCACCTAGTGCAG”, which binding signal is on record?
The binding signal was 12800 fluorescence intensity (a.u.).

“TATCTCGGAGTTGATTTGATGATTCTTACAGTTCATTGAACGGAGTCACCTAGTGCAG” was tested. Which binding signal did it give?
Its binding signal is 3550 fluorescence intensity (a.u.).

With “TATAATTATTAATAATTAATTAATTATATATTAATTATTTCGGAGTCACCTAGTGCAG” as the sequence, how does the binding signal read?
Its binding signal is 26700 fluorescence intensity (a.u.).

“TGTATTAGCATAATTAATTGTTCTGGCATTTTGTCGCTGTCGGAGTCACCTAGTGCAG” was tested. Which binding signal did it give?
Its binding signal is 9730 fluorescence intensity (a.u.).

For “AGCTGAATTGACTAGAGGAAGATTCAGCTAATGTATAACACGGAGTCACCTAGTGCAG”, which binding signal is on record?
Its binding signal is 3240 fluorescence intensity (a.u.).

“ACTGATTCCGTTTTACGTGACTATGGTGTGGACTCGAATACGGAGTCACCTAGTGCAG” was tested. Which binding signal did it give?
The binding signal was 3300 fluorescence intensity (a.u.).

Which binding signal does the source give for “ATGCTGCCATGATTGGCTTATCATTTGATGTAATAGTCCCCGGAGTCACCTAGTGCAG” here?
Its binding signal is 25700 fluorescence intensity (a.u.).

With “TATGGCTAATTATGGACTAATTAGGCTCAAAAGATTCGTCCGGAGTCACCTAGTGCAG” as the sequence, how does the binding signal read?
Its binding signal is 38000 fluorescence intensity (a.u.).

With “AAAATCATGATAGAAATTATATATTTTCAAGTTGTTTTGCCGGAGTCACCTAGTGCAG” as the sequence, how does the binding signal read?
The binding signal was 18200 fluorescence intensity (a.u.).

How did the binding signal turn out when “TTGTTATCTGATTTAGACGTACATACTCACGTTTAGGCATCGGAGTCACCTAGTGCAG” was run?
Its binding signal is 3240 fluorescence intensity (a.u.).

With “TAAAATAAATCAAATTAATACAAGTGAGATATCTTAGTAACGGAGTCACCTAGTGCAG” as the sequence, how does the binding signal read?
The binding signal was 6480 fluorescence intensity (a.u.).

Which binding signal does the source give for “ACAAAATTAAGTAACATATGTAAATTTTGCATTGAATAATCGGAGTCACCTAGTGCAG” here?
Its binding signal is 3330 fluorescence intensity (a.u.).

With “TTGTTAATCATATAGTAATAACCTATATGCTACGATTCTGCGGAGTCACCTAGTGCAG” as the sequence, how does the binding signal read?
The binding signal was 5660 fluorescence intensity (a.u.).

Which binding signal does the source give for “TTCTCTAATTAAATTAAACTATGAGTACTTAAAAGCCCTGCGGAGTCACCTAGTGCAG” here?
The binding signal was 24700 fluorescence intensity (a.u.).

With “CTGAACTGGTTCGTTTCTAATTGACTGTGTTTGTTTGTTTCGGAGTCACCTAGTGCAG” as the sequence, how does the binding signal read?
Its binding signal is 4720 fluorescence intensity (a.u.).

With “TCATTGAAATAATTTGAGGATGGAAATGAAACAGCAGCATCGGAGTCACCTAGTGCAG” as the sequence, how does the binding signal read?
Its binding signal is 3260 fluorescence intensity (a.u.).

“GAACAATCAGACAATTTTATCTGGCTCAAGCACCATCTCTCGGAGTCACCTAGTGCAG” was tested. Which binding signal did it give?
Its binding signal is 3260 fluorescence intensity (a.u.).

For “AGATTAGATTGGTTTAGCGCCAATAATTTAACCTAGTTAGCGGAGTCACCTAGTGCAG”, which binding signal is on record?
The binding signal was 27700 fluorescence intensity (a.u.).

For “CTGGATGATTGGATCAGACGCTCACAATTAAGTTAACCCACGGAGTCACCTAGTGCAG”, which binding signal is on record?
Its binding signal is 41900 fluorescence intensity (a.u.).

How did the binding signal turn out when “GAGATTGGAAGCACCATTTGACATTACGCGCCTGATTCATCGGAGTCACCTAGTGCAG” was run?
Its binding signal is 5800 fluorescence intensity (a.u.).

Which binding signal does the source give for “TAGACTTATAACTAATTTAATTTCTATAGTTACGTTATCCCGGAGTCACCTAGTGCAG” here?
The binding signal was 9980 fluorescence intensity (a.u.).

With “ACATCAGTTCAGCTTAATTGACTTGTTCTCCATCACAAGTCGGAGTCACCTAGTGCAG” as the sequence, how does the binding signal read?
Its binding signal is 11700 fluorescence intensity (a.u.).

Which binding signal does the source give for “TTTCCGTCACATCGTTTAAATTTTAACCAAACTTTTAATTCGGAGTCACCTAGTGCAG” here?
The binding signal was 3420 fluorescence intensity (a.u.).

“TTAGACCATCCTTAATTTTAATTATCTACATCTAACTTGTCGGAGTCACCTAGTGCAG” was tested. Which binding signal did it give?
Its binding signal is 3280 fluorescence intensity (a.u.).

For “TCCTTGGAATGATTGCAAAGATAATTACGTGAGCAGGACCCGGAGTCACCTAGTGCAG”, which binding signal is on record?
Its binding signal is 25200 fluorescence intensity (a.u.).

Which binding signal does the source give for “TAAATTGTTTTAGTCTGAGTGACGACTGCACCGTTACCAGCGGAGTCACCTAGTGCAG” here?
Its binding signal is 3480 fluorescence intensity (a.u.).

“ATAGACACACATATATAATTAGTAATATATATTGGTTCCTCGGAGTCACCTAGTGCAG” was tested. Which binding signal did it give?
Its binding signal is 12600 fluorescence intensity (a.u.).

How did the binding signal turn out when “GTAATGTTAAAATTTTGACAATTTAACAATATTGCTAAGTCGGAGTCACCTAGTGCAG” was run?
The binding signal was 7130 fluorescence intensity (a.u.).

“TTGGGTAATTAACTCTCCCTCATTGATGCCTATTTAACACCGGAGTCACCTAGTGCAG” was tested. Which binding signal did it give?
Its binding signal is 19200 fluorescence intensity (a.u.).

With “AACAGTGTAACAATGATTGATGCAATAATATATCATCTGACGGAGTCACCTAGTGCAG” as the sequence, how does the binding signal read?
The binding signal was 25600 fluorescence intensity (a.u.).

With “CTCCTGCAAATGGGTTGATTTGTTTGTCTTCATACTGAATCGGAGTCACCTAGTGCAG” as the sequence, how does the binding signal read?
The binding signal was 5210 fluorescence intensity (a.u.).

“TTTCCGTCACATCATTCTAATTTTAACCAAACTTCCAATTCGGAGTCACCTAGTGCAG” was tested. Which binding signal did it give?
The binding signal was 4920 fluorescence intensity (a.u.).

For “TGTTGATGGACAGATGCATGCACCTCCCAAAATACCATCCCGGAGTCACCTAGTGCAG”, which binding signal is on record?
The binding signal was 22200 fluorescence intensity (a.u.).

Which binding signal does the source give for “ATAACCCGACATAATTTGAACCGGGCCAGTAAGGCTGTGGCGGAGTCACCTAGTGCAG” here?
The binding signal was 4110 fluorescence intensity (a.u.).

With “TTGAAATTAAATTTAATCAGCATAAATTACATCATTGACTCGGAGTCACCTAGTGCAG” as the sequence, how does the binding signal read?
The binding signal was 32100 fluorescence intensity (a.u.).

With “GAGGTAATTTGGATAGTTATAATCAGGTCTTGAGATCTTCCGGAGTCACCTAGTGCAG” as the sequence, how does the binding signal read?
The binding signal was 22700 fluorescence intensity (a.u.).

How did the binding signal turn out when “CCACGTCATTTGACTGGTCGAAGTTAACAGAGATGGGGTACGGAGTCACCTAGTGCAG” was run?
Its binding signal is 4540 fluorescence intensity (a.u.).

For “TGCTAAATTTGAAGATCTGGTCTTAATAAATACTAGTATACGGAGTCACCTAGTGCAG”, which binding signal is on record?
Its binding signal is 3380 fluorescence intensity (a.u.).

Which binding signal does the source give for “AAATTTTAAATTTTATAACTTAATTTTGAATTCGAATTTTCGGAGTCACCTAGTGCAG” here?
Its binding signal is 5770 fluorescence intensity (a.u.).

“TTCGTCATATACGGTGGCTGATTGTTTTGACATTCGGCAACGGAGTCACCTAGTGCAG” was tested. Which binding signal did it give?
The binding signal was 4040 fluorescence intensity (a.u.).
